Reference: PMC4336329 (PLoS ONE, 2015)
The whole screen tested about 310,000 compounds, of which about 14,000 (4.5%) showed an effect of 50% or more. The effect is printed as a negative number. This is one part of the list.

biological target: human ether-à-go-go-related gene (hERG) potassium channel (human, UniProt Q12809); test: primary screen, population patch clamp on CHO cells stably expressing hERG
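Also: peak tail current of the secondary pulse compared with the same well before compound.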

Sequence of human ether-à-go-go-related gene (hERG) potassium channel (Q12809 whole entry, looked up): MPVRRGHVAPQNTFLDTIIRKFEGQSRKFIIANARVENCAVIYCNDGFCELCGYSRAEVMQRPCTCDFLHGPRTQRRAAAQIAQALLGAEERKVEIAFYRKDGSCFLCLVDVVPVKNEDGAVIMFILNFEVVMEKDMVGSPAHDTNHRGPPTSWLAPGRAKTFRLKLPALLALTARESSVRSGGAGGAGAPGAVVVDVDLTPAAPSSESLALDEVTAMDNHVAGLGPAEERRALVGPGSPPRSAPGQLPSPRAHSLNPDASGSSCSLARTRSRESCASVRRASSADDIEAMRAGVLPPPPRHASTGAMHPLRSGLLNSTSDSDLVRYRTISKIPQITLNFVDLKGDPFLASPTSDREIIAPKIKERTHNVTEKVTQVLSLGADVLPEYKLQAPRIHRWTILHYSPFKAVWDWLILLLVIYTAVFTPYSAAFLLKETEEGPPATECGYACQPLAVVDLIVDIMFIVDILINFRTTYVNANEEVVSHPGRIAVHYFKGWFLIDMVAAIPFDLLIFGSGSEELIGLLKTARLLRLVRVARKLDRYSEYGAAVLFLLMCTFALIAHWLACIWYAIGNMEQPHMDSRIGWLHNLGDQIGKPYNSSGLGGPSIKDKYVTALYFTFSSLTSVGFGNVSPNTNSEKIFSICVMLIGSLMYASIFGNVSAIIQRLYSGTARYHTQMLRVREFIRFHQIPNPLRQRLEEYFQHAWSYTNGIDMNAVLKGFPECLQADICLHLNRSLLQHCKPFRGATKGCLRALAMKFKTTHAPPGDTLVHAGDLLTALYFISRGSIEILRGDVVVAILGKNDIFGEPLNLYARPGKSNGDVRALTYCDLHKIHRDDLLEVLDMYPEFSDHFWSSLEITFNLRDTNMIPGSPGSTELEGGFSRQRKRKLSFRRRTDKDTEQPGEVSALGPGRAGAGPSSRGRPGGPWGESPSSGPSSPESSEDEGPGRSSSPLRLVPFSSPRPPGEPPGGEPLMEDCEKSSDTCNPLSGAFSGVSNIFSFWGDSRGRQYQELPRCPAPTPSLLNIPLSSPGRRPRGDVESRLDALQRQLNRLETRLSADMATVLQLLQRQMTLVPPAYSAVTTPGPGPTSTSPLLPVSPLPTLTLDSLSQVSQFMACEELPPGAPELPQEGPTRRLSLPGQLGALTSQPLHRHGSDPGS

Row | Compound | hERG current change (%, negative = inhibition) at 10uM [%]
1 | CC(C)c1nc(SCC(=O)N2CCCCCC2)c2c(=O)n(C)c(=O)n(C)c2n1 | -11.2
2 | CCC(Sc1ncnc2c1nnn2-c1ccc(F)cc1)C(=O)OC (centres unmarked) | -38.2
3 | COc1ccc(C(=O)C[n+]2ccc(N(C)C)cc2)cc1.[Cl-] | 17.6
4 | O=C(NC1CCCCC1)N1CCc2[nH]c3ccccc3c2C1 | 3.15
5 | COc1ccccc1/C=C/CN1CCC(Oc2ccc(C(=O)N3CCCC3)cc2)CC1 | -24.3
6 | CCOC(=O)c1cc(-c2ccccc2)sc1NC(=S)Nc1cc(C)ccn1 | 26.3
7 | Cc1nc(-c2ccc(C(=O)NCCO)cc2)cs1 | 19.8
8 | COc1ccc(Cl)cc1Nc1nc(-c2sc(NC(=O)c3ccco3)nc2C)cs1 | 21.9
9 | COc1ccccc1N(CC(=O)NC(C)(C)C)C(=O)CCC(=O)Nc1nccs1 | -36.5
10 | O=C(NCCc1c[nH]c2ccccc12)c1ccc2nc[nH]c2c1 | -6.62
11 | Cc1ccc(C)c(N2CCN(c3ccc([N+](=O)[O-])cn3)CC2)c1 | -5.89
12 | Cc1ccc(S(=O)(=O)Nc2c(C)ccc3nsnc23)cc1 | 2.3
13 | C/C(=N/NS(=O)(=O)c1ccc(Br)cc1)c1ccc(C)o1 | -3.48
14 | CC(C)CN1CCNC(=O)C1CC(=O)N(C)CC1CCOCC1 (centres unmarked) | 6.48
15 | CC(C)C[C@@H]1NC(=O)[C@H](Cc2ccc(O)cc2)NC(=O)c2cc([N+](=O)[O-])cc(I)c2NCCC[C@@H](C(N)=O)NC1=O | -10.5
16 | Cc1ccc(/C=N/NC(=O)CNC(=O)c2ccc(S(=O)(=O)N3CCCC3)cc2)o1 | -0.107
17 | COc1ccc(C2=NN(C(C#N)c3ccc(OC)c(OC)c3)C(c3ccccc3)C2)cc1 (centres unmarked) | 23.8
18 | COc1ccc(NC(=O)Nc2cccc(C)n2)c(OC)c1 | 10.4
19 | CN(C)C(CNC(=O)CNC(=O)c1ccc2ccccc2c1)c1ccccc1 (centres unmarked) | -20.2
20 | Cc1ccccc1S(=O)(=O)/N=C(/c1ccccc1)N1CCOCC1 | 12.7
21 | COc1ccc(CCNC(=O)C(=O)NCC2CCCN2S(=O)(=O)c2ccccc2)cc1OC (centres unmarked) | -26.6
22 | c1csc(-c2nnc3ccccn23)c1 | -3.19
23 | Cc1ccc(-c2nnc3ccc(SCC(=O)N4CCc5ccccc54)nn23)cc1 | -4.46

Row | Compound | hERG current change (%, negative = inhibition) at 10uM [%]
24 | CCNc1nc(N)nc(-c2cc(Cl)ccc2OC)n1 | 5.75
25 | COc1ccc(NC(=S)N2CCN(S(=O)(=O)c3ccc(C)cc3)CC2)cc1 | 5.38
26 | Cc1ccc(N=C(NOC(=O)c2ccccc2)c2nonc2N)c(C)c1 | 8.26
27 | O=C(Oc1c(Cl)cc(Cl)c2ccccc12)N1CCCC1 | -25.9
28 | COc1ccc(C2=NOC(C(=O)Nc3cccnc3Cl)C2)cc1 (centres unmarked) | 3.21
29 | CCCN(CCC)CCNc1c(NC2CCN(C(=O)OCC)CC2)c(=O)c1=O | 13.4
30 | Cc1ccc(NC(=O)CSCC(=O)NCc2ccco2)cc1 | -0.0131
31 | CC(C)(C)C1CCC2(CC1)CC(=O)c1ccccc1O2 (centres unmarked) | 19.8
32 | O=C(Nc1ccc(O)cc1)c1ccc2c(c1)C(=O)N(Cc1ccccc1)C2=O | -1.73
33 | Cc1c(C(=O)NC(=S)Nc2ccc(N3CCOCC3)cc2)cccc1[N+](=O)[O-] | 7.46
34 | CN(C)c1ccc(N/C=C/C(=O)c2ccc(F)cc2)cc1 | 20.2
35 | COC(=O)c1ccc(NC(=O)Nc2ccccc2C)cc1 | 14.7
36 | Br.CCOC(=O)c1c(CSC(=N)N)n(C)c2cc(Br)c(OC(C)=O)cc12 | -68.7
37 | S=C(Nc1ccc(Cl)cc1)NC1CC2CCC(C1)N2Cc1ccccc1 (centres unmarked) | -66.1
38 | COc1ccc(CCN2Cc3c(cccc3[N+](=O)[O-])C2=O)cc1OC | -6.89
39 | CCOC(=O)CSc1nc(=O)n2cccc(C)c2n1 | -3.7
40 | CC(C)OC(=O)C1C(=O)CC(C)(O)C(C(=O)OC(C)C)C1c1cccc([N+](=O)[O-])c1 (centres unmarked) | 20.9
41 | O=C(O)C(=O)O.OCCNCCOCCOc1ccccc1-c1ccccc1 | 7.91
42 | CN(C)CCCNC(=O)C(=O)Nc1cc2c3c(c1)CC(=O)N3CCC2 | 16
43 | Cc1ccc(S(=O)(=O)N2CCC(C(=O)NC3CCCC3)CC2)cc1Cl | 13.1
44 | CC1CCN(S(=O)(=O)c2ccc([N+](=O)[O-])cc2)CC1 | -3.23
45 | O=[N+]([O-])c1ccc(-c2nnc(CNC3CCCC3)o2)cc1 | -30
46 | O=C(CSc1nc2ccccc2o1)Nc1ccccc1N1CCCCCC1 | 9.52

Row | Compound | hERG current change (%, negative = inhibition) at 10uM [%]
47 | N#Cc1nc(-c2ccccc2Cl)oc1N1CCCCC1 | 1.41
48 | CCC(=O)N/N=C(\C)CC(=O)Nc1ccc2ccccc2c1 | 15.5
49 | Cc1c(Cl)cnc(NC(=O)COC(=O)c2ccc([N+](=O)[O-])s2)c1Cl | 6.06
50 | O=C(NCCN1CCOCC1)c1ccc(NS(=O)(=O)c2cccc([N+](=O)[O-])c2)cc1 | 10.6
51 | O=C(O)C(NS(=O)(=O)c1ccc(F)cc1)c1ccccc1 (centres unmarked) | 13.8
52 | COc1ccc(NC(=O)Nc2ncccc2C)cc1 | 6.54
53 | Cc1nn2c3c(cnc2c1-c1ccc(Cl)cc1)C(=O)CC(c1ccco1)C3 (centres unmarked) | 2.61
54 | Clc1cccc2sc(N3CCCC3)nc12 | 13.1
55 | O=C1NCCN1C(=O)c1cccc(Cl)c1 | 4.69
56 | Cc1ccc(NC(=O)C2CC2C)c(Cl)c1 (centres unmarked) | 4.11
57 | Cl.OCCNCc1cc(Br)ccc1OCc1ccccc1Cl | -74.9
58 | O=C(CSc1nc2cc(Cl)c(Cl)cc2[nH]1)c1ccc2c(c1)OCO2 | 7.8
59 | Cc1cc(CNC(=O)c2ccc(C)c([N+](=O)[O-])c2)c2ccccc2n1 | 8.05
60 | O=C(Oc1ccc(/C=N/O)cc1)c1ccccc1 | -5.95
61 | N#Cc1cc2c(nc1SCc1ccccc1)CCCCC2 | 4.3
62 | COCc1cc(C)nc(SCC(=O)NCC2CCCO2)c1C#N (centres unmarked) | 3.38
63 | CC1=CC(C)[C@H](/C=N/n2c(=O)[nH]c3c([nH]c4ccc(Br)cc43)c2=O)C(C)C1 (some centres unmarked) | -13.7
64 | O=[N+]([O-])/C(=C\Nc1ccccc1)S(=O)(=O)c1ccccc1 | -1.53
65 | Nc1nc(-c2ccccc2)nc(-c2ccccc2O)n1 | 3.94
66 | COc1ccccc1/C=C(/C(=O)OCC(=O)NCc1ccccc1)c1ccccc1 | -5.43
67 | O=C(OCc1cc2ccccc2[nH]c1=O)c1cccnc1 | -2.16
68 | C=CCN1C(=O)/C(=C/c2ccc(O)c(OC)c2)S/C1=N/c1nccs1 | -11.4
69 | COC(=O)Cn1c(=O)c(C)nc2ccccc21 | 1.24

Row | Compound | hERG current change (%, negative = inhibition) at 10uM [%]
70 | Cc1ccc(-c2nn(-c3cccc(F)c3)cc2CN(Cc2nccn2C)C(C)C)o1 | -21.4
71 | CCOC(=O)c1c(C)[nH]c(C(=O)COC(=O)C(C)Oc2ccc(Cl)cc2Cl)c1C (centres unmarked) | 11.6
72 | COC(=O)c1ccc(COC(=O)c2cccnc2Cl)cc1 | -12.1
73 | COc1ccc(S(=O)(=O)NCc2ccco2)cc1C(=O)N1CCOCC1 | 21
74 | CCOc1ccc(N2CC(C(=O)OC)CC2=O)cc1 (centres unmarked) | 12.8
75 | COc1cccc(-c2nc(CS(=O)(=O)CC(=O)NC3CC3)c(C)o2)c1 | 16.1
76 | C=C(C)CSc1nnc([C@H](CCSC)NC(=O)OC(C)(C)C)o1 | -14.3
77 | CCOc1ccc(/C(O)=C2\C(=O)C(=O)N(c3ccc(OC)cc3)C2c2ccccc2[N+](=O)[O-])cc1 (centres unmarked) | 17.5
78 | NC(=O)C1(NC(=O)[C@@H]2CC3(CC(c4cccc(NC(=O)[C@@H]5CCC(=O)N5)c4)=NO3)CN2C(=O)Cc2ccc(Cl)cc2)CC1 (some centres unmarked) | 36.8
79 | Cc1cccc(NC(=S)N2CCN(C(=O)C3CCCO3)CC2)c1 (centres unmarked) | 3.34
80 | CCOC(=O)c1ccc(NC(=O)CN2C(=O)CSC(C)C2=O)cc1 (centres unmarked) | 9.21
81 | CN=c1scc(-c2cccs2)n1/N=C/c1ccc(O)c(O)c1O | 10.2
82 | COc1ccc(S(=O)(=O)n2nc(OC(=O)c3cccs3)cc2N)cc1 | -3.07
83 | O=C(CCCc1nc2ccccc2s1)N1CCN(S(=O)(=O)c2cccs2)CC1 | -11.9
84 | O=C1c2ccccc2CN1C(CO)Cc1ccccc1 (centres unmarked) | 15
85 | Cc1cccc(NS(=O)(=O)c2ccc3nc(-c4ccccc4)[nH]c3c2)c1C | 11.8
86 | O=C1c2cccnc2C(=O)N1Cc1ccc(S(=O)(=O)NCc2ccco2)s1 | 16.2
87 | N#Cc1cccc(Cn2nnc(-c3ccccc3)n2)c1 | -13.3
88 | CCOc1cc(/C=N/O)ccc1OCc1ccc(F)cc1 | 1.24
89 | CCC[C@H]1COCCS(=O)(=O)N1Cc1ccc(Br)cc1 | -42
